The values below come from a collection of fitness landscapes (doi:10.1126/science.1257360).

Sequences and labels used below:
B1: PhoQ; a variant is named by its letters at X, in order, P23837 (parent)
chain: MKKLLRLFFPLSLRVRFLLATAAVVLVLSLAYGMVALIGYSVSFDKTTFRLLRGESNLFYTLAKWENNKLHVELPENIDKQSPTMTLIYDENGQLLWAQRDVPWLMKMIQPDWLKSNGFHEIEADVNDTSLLLSGDHSIQQQLQEVREDDDDAEMTHSVAVNVYPATSRMPKLTIVVVDTIPVELKSSYMVWSWFIYVLSANLLLVIPLLWVAAWWSLRPIEALAKEVRELEEHNRELLNPATTRELTSLVRNLNRLLKSERERYDKYRTTLTDLTHSLKTPLXXLQXXLRSLRSEKMSVSDAEPVMLEQISRISQQIGYYLHRASMRGGTLLSRELHPVAPLLDNLTSALNKVYQRKGVNISLDISPEISFVGEQNDFVEVMGNVLDNACKYCLEFVEISARQTDEHLYIVVEDDGPGIPLSKREVIFDRGQRVDTLRPGQGVGLAVAREITEQYEGKIVAGESMLGGARMEVIFGRQHSAPKDE

Some of the results follow. Some results are limits rather than exact numbers.

In this experiment the parent is B1. The experiment in a line: enrichment ratio after two sorts for PhoP signalling (ratio (wild type AVST 3.29)); higher = more functional. As to conditions: with PhoP (E. coli).
LSRN: the enrichment ratio was no more than 0.25. As to PHEY, the enrichment ratio is no more than 0.25.

For the variant KNQN, the enrichment ratio is no more than 0.25. For HFSA, the enrichment ratio is no more than 0.25.

In the case of TYMQ, the enrichment ratio came out at 1.36.

Take QDGQ: the enrichment ratio was no more than 0.25. On to DSHR, for which the enrichment ratio is no more than 0.25. With ICRY, the enrichment ratio was no more than 0.25.

Turning to YKDW, the enrichment ratio was no more than 0.25.

As for RRCF, the enrichment ratio is no more than 0.25.

With PIFY, the enrichment ratio is no more than 0.25.

Regarding WVYL, the enrichment ratio was no more than 0.25. For LIWS, the enrichment ratio was no more than 0.25. Regarding HILY, the enrichment ratio is no more than 0.25. As for IKSS, the figure is no more than 0.25; as for WDLC, no more than 0.25; as for HTGF, no more than 0.25. Turning to ACDF, the enrichment ratio is no more than 0.25. In the case of PCKI, the enrichment ratio is no more than 0.25. Turning to PILA, the enrichment ratio was no more than 0.25. With TMDS, the enrichment ratio was no more than 0.25. For SDNG the value was no more than 0.25; for AHPQ, no more than 0.25. For the variant FHLC, the enrichment ratio was no more than 0.25. Consider YDSM, for which the enrichment ratio was no more than 0.25. Turning to VSFY, the enrichment ratio was found to be 2.3.

In the case of ELTP, the enrichment ratio was no more than 0.25.

Take IYDK: the enrichment ratio is no more than 0.25. Turning to VLFI, the enrichment ratio is no more than 0.25. In the case of ICNL, the enrichment ratio is no more than 0.25.

On to MKYM, for which the enrichment ratio is 6.46.

For PWAN, the enrichment ratio was no more than 0.25.

Consider MQKK, for which the enrichment ratio was no more than 0.25. On to NSPI, for which the enrichment ratio is no more than 0.25. For YPVC the value was no more than 0.25. Take LAGM: the enrichment ratio is no more than 0.25. For YEDM the value was no more than 0.25. For YNQA, the enrichment ratio is no more than 0.25.

As for QQRH, the enrichment ratio is no more than 0.25. In the case of GRTR, the enrichment ratio is no more than 0.25.

Take AEVY: the enrichment ratio was determined as 6.64.

Take IGCA: the enrichment ratio was no more than 0.25. With QPMR, the enrichment ratio is no more than 0.25. As for GFMA, the enrichment ratio was no more than 0.25.

With TALD, the enrichment ratio is 5.84. In the case of TTTF, the enrichment ratio is 7.89. Take VSRM: the enrichment ratio was no more than 0.25. On to TEWV, for which the enrichment ratio was 18.4. Take KTAD: the enrichment ratio is no more than 0.25. In the case of PIGM, the enrichment ratio was no more than 0.25. On to VYHF, for which the enrichment ratio was no more than 0.25. As for LMNG, the enrichment ratio was no more than 0.25. As to SYIV, the enrichment ratio was 0.657. Turning to DGVP, the enrichment ratio is no more than 0.25. With HNMQ, the enrichment ratio was no more than 0.25. SLEG: the enrichment ratio is no more than 0.25. Take TRPF: the enrichment ratio was no more than 0.25. On to FEHP, for which the enrichment ratio was no more than 0.25. For SHSA, the enrichment ratio is no more than 0.25. With VPIL, the enrichment ratio was no more than 0.25. Regarding IDLL, the enrichment ratio was no more than 0.25. With TLSS, the enrichment ratio is 12. For EAVR the value was no more than 0.25; for TAHQ, 1.58; for RWYH, no more than 0.25. As to TPDS, the enrichment ratio is no more than 0.25.

For FQFS, the enrichment ratio was no more than 0.25. Take SHKI: the enrichment ratio was no more than 0.25. Take VWRC: the enrichment ratio was no more than 0.25. SFQT: the enrichment ratio is no more than 0.25.

Turning to VSIK, the enrichment ratio is no more than 0.25.

With LFFS, the enrichment ratio is no more than 0.25. PIQL: the enrichment ratio was no more than 0.25. As for AWVD, the figure is no more than 0.25; as for QAVK, no more than 0.25; as for PAST, no more than 0.25.

Turning to YNWK, the enrichment ratio is no more than 0.25.

For QESS, the enrichment ratio came to 19.7. Turning to PVIR, the enrichment ratio was no more than 0.25. On to FGVV, for which the enrichment ratio amounted to 0.429.

As to DLRQ, the enrichment ratio is no more than 0.25.

Consider KRAI, for which the enrichment ratio is no more than 0.25. Turning to QVGR, the enrichment ratio was no more than 0.25. As to WLHL, the enrichment ratio was no more than 0.25. As to GLGM, the enrichment ratio is no more than 0.25. PENG: the enrichment ratio was no more than 0.25. Turning to YKVN, the enrichment ratio is no more than 0.25. As to SGAM, the enrichment ratio came to 9.22. For EGCH the value was no more than 0.25; for LPAR, no more than 0.25.

On to MDDI, for which the enrichment ratio was no more than 0.25.

Turning to RAGA, the enrichment ratio was no more than 0.25.

As for NIAQ, the enrichment ratio is no more than 0.25. In the case of QHWK, the enrichment ratio was no more than 0.25.

For KTME, the enrichment ratio is no more than 0.25. KKWK: the enrichment ratio was no more than 0.25. For the variant YIWL, the enrichment ratio was no more than 0.25. In the case of HQDK, the enrichment ratio is no more than 0.25. As to SGNQ, the enrichment ratio was no more than 0.25. For ELTH the value was no more than 0.25; for TAAW, no more than 0.25; for DQGN, no more than 0.25. NEFL: the enrichment ratio is no more than 0.25.

For VLWP, the enrichment ratio was no more than 0.25. Turning to SADA, the enrichment ratio was no more than 0.25. As to SDGA, the enrichment ratio is no more than 0.25.

With TDVR, the enrichment ratio is no more than 0.25.

RSGN: the enrichment ratio was no more than 0.25. For CIFS, the enrichment ratio was no more than 0.25. As for DKIN, the figure is no more than 0.25.

With TMEW, the enrichment ratio was no more than 0.25. With GVCW, the enrichment ratio amounted to 11.5. Take LLQN: the enrichment ratio is no more than 0.25. Consider EQRW, for which the enrichment ratio was no more than 0.25.

With TLNA, the enrichment ratio is 3.71. LAQL: the enrichment ratio is no more than 0.25. As for FAWG, the figure is no more than 0.25; as for YEKV, no more than 0.25. As to VACH, the enrichment ratio is no more than 0.25. As to RKKW, the enrichment ratio is no more than 0.25. As for AACR, the figure is 7.58; as for LECP, no more than 0.25; as for KFQF, no more than 0.25. As for YRNK, the figure is no more than 0.25; as for TRYD, no more than 0.25. As for RRSP, the enrichment ratio is no more than 0.25. For KDIP the value was no more than 0.25. For KTSS, the enrichment ratio is no more than 0.25.

As to SSAR, the enrichment ratio was no more than 0.25. For DWRW, the enrichment ratio was no more than 0.25.

For the variant RTIV, the enrichment ratio was no more than 0.25. Regarding NHTF, the enrichment ratio was no more than 0.25. With EAFR, the enrichment ratio is no more than 0.25. On to NESW, for which the enrichment ratio was no more than 0.25. Turning to YYVQ, the enrichment ratio was no more than 0.25. As for DMDQ, the enrichment ratio was no more than 0.25. Take QEWD: the enrichment ratio is 4.99. For ISLG, the enrichment ratio is 3.68. Turning to HNML, the enrichment ratio was no more than 0.25. As to EIYR, the enrichment ratio was no more than 0.25. As to SYPQ, the enrichment ratio was no more than 0.25. As for SRTK, the figure is no more than 0.25. As for PCAR, the figure is no more than 0.25; as for ARWR, no more than 0.25. As for HTTL, the figure is 1.2. Take YEQY: the enrichment ratio was no more than 0.25. In the case of QDQI, the enrichment ratio is no more than 0.25. In the case of TAPL, the enrichment ratio was no more than 0.25. With EPFS, the enrichment ratio is no more than 0.25. With RNGK, the enrichment ratio was no more than 0.25. As for HAVH, the figure is no more than 0.25; as for GPVK, no more than 0.25. As to DKKH, the enrichment ratio was no more than 0.25.
